{
  "source": "paper PMC6212790",
  "note": "This is one part of the list. At the low end of the ranking, values are background and their order means little.",
  "data": [
    {"molecular_target": "T1, GST-Rok-C97-191 (UniProt O34857)", "T1 sequence": "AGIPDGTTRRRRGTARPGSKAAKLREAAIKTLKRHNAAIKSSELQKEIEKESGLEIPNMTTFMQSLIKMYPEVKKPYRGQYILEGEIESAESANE", "assay": "protein binding microarray;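 further: rank score from −0.5 (least bound) to 0.5 (best bound)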", "details": "Rok is a gene silencer of Bacillus subtilis; high values mean tight binding; most listed sequences are background and not binding sites; double strand, one strand shown", "units": {"binding signal": "E-score"}, "values": [
      {"sequence": "ATAGTACG", "binding signal": 0.248},
      {"sequence": "CTAGCCAC", "binding signal": 0.0288},
      {"sequence": "CCTGAGCG", "binding signal": -0.101},
      {"sequence": "CTGCGAAC", "binding signal": -0.116},
      {"sequence": "CGTTGTGA", "binding signal": 0.0682},
      {"sequence": "CTGGTCTA", "binding signal": -0.0758},
      {"sequence": "ATCTGTAC", "binding signal": 0.0594},
      {"sequence": "CTATCCGA", "binding signal": 0.0845},
      {"sequence": "CACAAACC", "binding signal": -0.0611},
      {"sequence": "CCATCTAA", "binding signal": 0.126},
      {"sequence": "TCTTGCCA", "binding signal": -0.0538},
      {"sequence": "AGTGATGG", "binding signal": 0.118},
      {"sequence": "TTCACCAA", "binding signal": -0.00927},
      {"sequence": "GTAACCAA", "binding signal": 0.000641},
      {"sequence": "AACTATTC", "binding signal": 0.219},
      {"sequence": "CAGGGGAC", "binding signal": -0.382},
      {"sequence": "ATCTGTGG", "binding signal": -0.12},
      {"sequence": "GTTTAAAC", "binding signal": 0.0536},
      {"sequence": "ACCTTACA", "binding signal": 0.128},
      {"sequence": "ATTTTTAA", "binding signal": 0.146},
      {"sequence": "AACCTACT", "binding signal": 0.251},
      {"sequence": "CAGCCTGC", "binding signal": -0.157},
      {"sequence": "CGCTCTCA", "binding signal": -0.164},
      {"sequence": "ACGGGCAC", "binding signal": -0.0598},
      {"sequence": "CCTCCGCC", "binding signal": -0.254},
      {"sequence": "CTACGAGA", "binding signal": 0.177},
      {"sequence": "AGCTTGTC", "binding signal": 0.00187},
      {"sequence": "AGCCAGCC", "binding signal": -0.267},
      {"sequence": "GGATCGGA", "binding signal": -0.143},
      {"sequence": "AGAGCCGG", "binding signal": -0.295},
      {"sequence": "AGTATCCG", "binding signal": 0.0688},
      {"sequence": "GGGTGATA", "binding signal": 0.131},
      {"sequence": "TGCAGAAA", "binding signal": -0.11},
      {"sequence": "ATCACTGC", "binding signal": -0.138},
      {"sequence": "AACGCAGA", "binding signal": -0.256},
      {"sequence": "AAGTAAGC", "binding signal": 0.061},
      {"sequence": "ATACACCG", "binding signal": 0.0158},
      {"sequence": "CGGGTTAG", "binding signal": -0.157},
      {"sequence": "CGAACTCC", "binding signal": -0.103},
      {"sequence": "CGAATCAG", "binding signal": 0.0524},
      {"sequence": "TACCTCTA", "binding signal": 0.209},
      {"sequence": "CTTAAGCA", "binding signal": -0.142},
      {"sequence": "AGAGCTGA", "binding signal": -0.173},
      {"sequence": "AGAAGTCC", "binding signal": -0.0822},
      {"sequence": "ATTGTTAA", "binding signal": 0.228},
      {"sequence": "CACTAACG", "binding signal": -0.157},
      {"sequence": "CAGCGTAA", "binding signal": 0.0908},
      {"sequence": "AGCAGTAG", "binding signal": 0.228},
      {"sequence": "CAATGTCC", "binding signal": -0.155},
      {"sequence": "ATGGAAGC", "binding signal": -0.0449},
      {"sequence": "AACCGGCA", "binding signal": 0.151},
      {"sequence": "ATGCACCG", "binding signal": 0.00829},
      {"sequence": "ATTTTTCA", "binding signal": -0.125},
      {"sequence": "AGGCCGTG", "binding signal": -0.285},
      {"sequence": "TACCTCGA", "binding signal": 0.119},
      {"sequence": "ATTCAGCC", "binding signal": -0.143},
      {"sequence": "AGGACGGG", "binding signal": -0.0999},
      {"sequence": "ACTTTATC", "binding signal": 0.19},
      {"sequence": "CAGGACGC", "binding signal": -0.291},
      {"sequence": "GTCCCAAC", "binding signal": -0.0819},
      {"sequence": "AATTTGGC", "binding signal": 0.0996},
      {"sequence": "AGTCGAAA", "binding signal": -0.0607},
      {"sequence": "GATGTGAC", "binding signal": -0.0291},
      {"sequence": "GTAACAAA", "binding signal": 0.21},
      {"sequence": "CGCCGGCC", "binding signal": -0.312},
      {"sequence": "AGATGGTG", "binding signal": 0.08},
      {"sequence": "GAGCATTA", "binding signal": 0.0334},
      {"sequence": "CGGGTGAC", "binding signal": -0.259},
      {"sequence": "GACTATAA", "binding signal": 0.172},
      {"sequence": "CCTCCCAG", "binding signal": -0.272},
      {"sequence": "CGCGATAA", "binding signal": 0.00964},
      {"sequence": "CCGCCTGC", "binding signal": -0.42},
      {"sequence": "ATATATTA", "binding signal": 0.447},
      {"sequence": "AGCCCGCA", "binding signal": -0.143},
      {"sequence": "CCGCTGAC", "binding signal": -0.125},
      {"sequence": "ATCTAACA", "binding signal": 0.192},
      {"sequence": "CTTAGCCA", "binding signal": -0.121},
      {"sequence": "AGAGAGAT", "binding signal": 0.0965},
      {"sequence": "AACTCTCG", "binding signal": 0.1},
      {"sequence": "ACGCATAT", "binding signal": 0.108},
      {"sequence": "CGTCGTGA", "binding signal": -0.0793},
      {"sequence": "CATGAACG", "binding signal": 0.00655},
      {"sequence": "ACGAAACC", "binding signal": -0.0677},
      {"sequence": "ACAATCTC", "binding signal": -0.117},
      {"sequence": "ACCCAGCT", "binding signal": -0.00933},
      {"sequence": "GGTATGTA", "binding signal": 0.241},
      {"sequence": "CCACTCAG", "binding signal": -0.0368},
      {"sequence": "CTGTGCGA", "binding signal": -0.237},
      {"sequence": "TAGACAGA", "binding signal": 0.000902},
      {"sequence": "GCAACGAA", "binding signal": -0.0135},
      {"sequence": "AATTGCGC", "binding signal": 0.037},
      {"sequence": "ACGGAGCG", "binding signal": -0.113},
      {"sequence": "ACTAGCGA", "binding signal": 0.126},
      {"sequence": "AGCTTGGA", "binding signal": -0.101}
    ]}
  ]
}
